Reference: publication PMC12820563, “FoxP3 forms a head-to-head dimer in vivo and stabilizes its multimerization on adjacent microsatellites”
The other results are listed elsewhere or left out.

What follows are sequences tested against T1, MBP-FoxP1dN (Mus musculus, UniProt P58462 326-579) (assay: PD-seq (MBP pull-down with sequencing); 20 mM Tris-HCl pH 7.5, 100 mM NaCl, 1.5 mM MgCl2, 0.4 uM protein, 0.1 uM dsDNA library, 30 min, room temperature, amylose pull-down; high values mean tight binding). Conditions: protein: recombinant; tags: His6-MBP; chain copies: 2; dsDNA, one strand shown.
T1 sequence: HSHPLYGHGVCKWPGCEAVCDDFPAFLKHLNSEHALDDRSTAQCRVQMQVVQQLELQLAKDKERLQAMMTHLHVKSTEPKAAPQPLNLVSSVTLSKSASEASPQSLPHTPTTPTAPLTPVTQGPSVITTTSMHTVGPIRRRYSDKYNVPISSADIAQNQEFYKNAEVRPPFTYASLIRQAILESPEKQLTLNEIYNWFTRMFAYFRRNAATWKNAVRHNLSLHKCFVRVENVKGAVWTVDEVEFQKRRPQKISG
Outline: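 E. coli-expressed mouse FoxP3 or FoxP1 fragment, N-terminus removed and tagged with His6-MBP, was used at 0.4 µM against 0.1 µM of a Klenow-filled degenerate double-stranded DNA library. After 30 min at room temperature in Tris pH 7.5 buffer with NaCl and MgCl2, complexes were pulled down on amylose resin and washed three times. Binding is pull-down over input reads-per-million enrichment from pooled replicates of the proteinase K-released, PCR-barcoded, Illumina-sequenced DNA.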

| Sequence | binding signal |
| --- | --- |
| GATGATTGTTCTCCCAGCTGATGAATTTACACCCTCGAGTAAACAAATTTTCCTAATCTTTCTGTTCAAGCGCCATCTAC | 1.18 RPM ratio (pull-down/input) |
| GATGATTGTTCTCCCAGCTGATGAATTGGTCCTTTCGAGTAAACAAATTTTCCTAATCTTTCTGTTCAAGCGCCATCTAC | 0.906 RPM ratio (pull-down/input) |
| GATGATTGTTCTCCCAGCTGATGAATTTATGCTGTCGAGTAAACAAATTTTCCTAATCTTTCTGTTCAAGCGCCATCTAC | 1.43 RPM ratio (pull-down/input) |
| GATGATTGTTCTCCCAGCTGATGAATTGTGCAGTTCGAGTAAACAAATTTTCCTAATCTTTCTGTTCAAGCGCCATCTAC | 1.1 RPM ratio (pull-down/input) |
| GATGATTGTTCTCCCAGCTGATGAATTCCAGTGATCGAGTAAACAAATTTTCCTAATCTTTCTGTTCAAGCGCCATCTAC | 0.853 RPM ratio (pull-down/input) |
| GATGATTGTTCTCCCAGCTGATGAATTGGCGGTTTCGAGTAAACAAATTTTCCTAATCTTTCTGTTCAAGCGCCATCTAC | 0.86 RPM ratio (pull-down/input) |
| GATGATTGTTCTCCCAGCTGATGAATTGTTTACATCGAGTAAACAAATTTTCCTAATCTTTCTGTTCAAGCGCCATCTAC | 2.91 RPM ratio (pull-down/input) |
| GATGATTGTTCTCCCAGCTGATGAATTGTCAAAGTCGAGTAAACAAATTTTCCTAATCTTTCTGTTCAAGCGCCATCTAC | 0.979 RPM ratio (pull-down/input) |
| GATGATTGTTCTCCCAGCTGATGAATTGAAGGGATCGAGTAAACAAATTTTCCTAATCTTTCTGTTCAAGCGCCATCTAC | 0.798 RPM ratio (pull-down/input) |
| GATGATTGTTCTCCCAGCTGATGAATTCTACGGCTCGAGTAAACAAATTTTCCTAATCTTTCTGTTCAAGCGCCATCTAC | 0.774 RPM ratio (pull-down/input) |
| GATGATTGTTCTCCCAGCTGATGAATTGCTCTTGTCGAGTAAACAAATTTTCCTAATCTTTCTGTTCAAGCGCCATCTAC | 1.06 RPM ratio (pull-down/input) |
| GATGATTGTTCTCCCAGCTGATGAATTGGATAAGTCGAGTAAACAAATTTTCCTAATCTTTCTGTTCAAGCGCCATCTAC | 0.947 RPM ratio (pull-down/input) |
| GATGATTGTTCTCCCAGCTGATGAATTACTTGTATCGAGTAAACAAATTTTCCTAATCTTTCTGTTCAAGCGCCATCTAC | 1.41 RPM ratio (pull-down/input) |
| GATGATTGTTCTCCCAGCTGATGAATTGGCGGCCTCGAGTAAACAAATTTTCCTAATCTTTCTGTTCAAGCGCCATCTAC | 0.813 RPM ratio (pull-down/input) |
| GATGATTGTTCTCCCAGCTGATGAATTTTTAGCGTCGAGTAAACAAATTTTCCTAATCTTTCTGTTCAAGCGCCATCTAC | 0.95 RPM ratio (pull-down/input) |
| GATGATTGTTCTCCCAGCTGATGAATTTTTTTAGTCGAGTAAACAAATTTTCCTAATCTTTCTGTTCAAGCGCCATCTAC | 1.05 RPM ratio (pull-down/input) |
| GATGATTGTTCTCCCAGCTGATGAATTGCAGTCGTCGAGTAAACAAATTTTCCTAATCTTTCTGTTCAAGCGCCATCTAC | 1.02 RPM ratio (pull-down/input) |
| GATGATTGTTCTCCCAGCTGATGAATTCTCTGGCTCGAGTAAACAAATTTTCCTAATCTTTCTGTTCAAGCGCCATCTAC | 0.769 RPM ratio (pull-down/input) |
